Source: PubChem BioAssay AID1963576 (National Center for Advancing Translational Sciences (NCATS), 2024)
Screen size: about 46,000 compounds; about 60 (0.1%) were called active. Inconclusive results (about 3%) are left out. Calls come from the whole dose curve; as a rule, active = well fitted inhibition curve with a large enough effect; inconclusive = small, poorly fitted or top-dose-only effect; inactive = no such curve, though single readings can be large or run the other way. This is one part of the list.

Experiment: Primary qHTS assay for Inhibitors of ovarian cancer metastasis using an organotypic tumor microenvironment (TME) model.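 For activity change, negative = inhibition: plate controls were DMSO wells for no effect and tomatine positive control wells for full effect.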 Note: nearly all actives have a fitted effect of over 65% in size.
Details: SKOV3ip1-GFP adhesion/invasion on 3D omental model, fluorescence; series mostly up to 45.8 µM; activity change, negative = inhibition: at the top concentration
Outline: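 A 3D layer of primary human omental fibroblasts, mesothelial cells, fibronectin and collagen I, grown 48 hr, received SKOV3ip1-GFP cells in serum-free medium plus compounds at 0.36-46 umol/L. After 2 hr RT and 16 hr 37 C, fixed adherent GFP cells were counted; normalized to DMSO and tomatine.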

outcome, inactive:
Cc1cccc(NC(=O)CCn2cnnn2)c1
CCc1ccc(NC(=O)Cn2c(=O)c3cccn3c3ccccc32)cc1
Cn1c(=O)oc2cc(S(=O)(=O)NC(CC(=O)O)c3cccc(Br)c3)ccc21 (stereo unspecified)
CCOC(=O)Cn1c(=O)n(CC2CCCO2)c2nc(-c3ccc(OC)cc3OC)nc(C(N)=O)c21 (stereo unspecified)
Cc1cccc(NC(=O)NCCn2c(=O)oc3ccc(C)cc32)c1
COc1cccc(CNC(=O)CN2C(=O)N(c3cc(C)ccc3C)S(=O)(=O)c3ccccc32)c1OC
Cc1ccc(C)c(CN2C(=O)c3ccccc3S(=O)c3ccc(C(=O)NCc4ccccc4Cl)cc32)c1 (stereo unspecified)
Cc1ccc(/C=C(\C#N)C(=O)Nc2cc(C)ccc2C)cc1

Activity change, negative = inhibition, inactive:
COc1ccc(-c2csc3nc(-c4ccc(Cl)cc4)oc(=O)c23)cc1 7.53%
CCN(C(=O)CSc1nc2ccccc2c2nc(CCn3c(C)nc4ccccc43)nn12)c1cccc(C)c1 -6.91%
CCN(CC)S(=O)(=O)c1ccc2c(c1)N(CC(=O)N1CCN(c3cccc(C)c3)C(C)C1)C(=O)CO2 (stereo unspecified) 1.8%
COc1cc(C(=O)NC2(C(F)(F)F)C(=O)NC(C)=C2C#N)cc(OC)c1OC (stereo unspecified) 6.57%
CCc1cccc(C)c1NC(=O)CN1CCN(Cc2ccccc2Cl)S1(=O)=O -3.05%
COc1ccc(NC(=O)CSc2nnc(N)s2)cc1 1.25%
Cc1ccc(Nc2c(-c3ccc(N4CCOCC4)cc3)nc3ccc(C)cn23)cc1 1.55%
CC(=O)c1ccc(N2CCN(C(=O)Nc3ccc(C)cc3)CC2)cc1 -1.02%
Cc1ccc(CNC(=O)CCCn2c(=O)c3ccccc3n(CC(=O)C(C)(C)C)c2=O)cc1 -2.45%
COc1cc(NC(=O)C(CC(C)C)NS(=O)(=O)c2ccc3c(c2)CCCC(=O)N3)cc(OC)c1 (stereo unspecified) 7.38%
Cc1oc2c(c1C(=O)NCc1cccc(Br)c1)C1=NCCN1C=N2 -18.8%
COc1cccc(NC(=O)c2sc3nc(N4CCOCC4)c4c(c3c2N)CC(C)(C)OC4)c1 18.3%
COc1cc(C)c(Cl)cc1S(=O)(=O)NCCc1c(C)[nH]c2ccccc12 19.9%
Cc1ccc(C)c(N2CCN(C(=O)c3cnc4c(-c5ccccc5)c(C)nn4c3C)CC2)c1 1.65%
COc1cccc(NC(=O)Cn2cc(C(=O)C3CCCCC3)c3ccccc32)c1 3.03%
CCOC(=O)c1c(NC(C)=O)c2c3c(sc2n1Cc1nc(-c2ccccc2OCC)oc1C)CCCC3 9.32%
COc1ccc(CNC(=O)c2cc3c(-c4ccccc4F)nn(C)c3s2)c(OC)c1 -13.7%
COc1ccccc1N1CCN(C(=O)C2CCN(S(=O)(=O)c3cnc[nH]3)CC2)CC1 2.3%
